The values that follow come from patent publication US10299477B2 (priority 2015, dated 2019).

The experiment has as its system Colletotrichum orbiculare. As to conditions: in vivo.

In the case of `Cn1c(-c2c(F)cccc2F)c(-c2ccc(Cl)cc2F)ccc1=O` [Compound 418], the “Test H (control value class)” value is “H (key: H shows more than 50% of control values; L shows 50% or less of control values)”.
With `Cn1c(-c2c(F)cccc2F)c(-c2ccc(Cl)cc2F)cc(Cl)c1=O` [Compound 419] the entry was “L (key: H shows more than 50% of control values; L shows 50% or less of control values)”.
The entry for `CCn1c(-c2c(F)cc(F)cc2F)c(-c2ccccc2Cl)ccc1=O` [Compound 420] is “H (key: H shows more than 50% of control values; L shows 50% or less of control values)”.
With `CCn1c(-c2c(F)cc(F)cc2F)c(-c2ccccc2Cl)cc(Cl)c1=O` [Compound 421] the entry was “H (key: H shows more than 50% of control values; L shows 50% or less of control values)”; with `COc1ccc(Cl)c(-c2ccc(=O)n(N)c2-c2c(F)cccc2F)c1` [Compound 422], “L (key: H shows more than 50% of control values; L shows 50% or less of control values)”; with `COc1ccc(Cl)c(-c2cc(Cl)c(=O)n(N)c2-c2c(F)cccc2F)c1` [Compound 423], “H (key: H shows more than 50% of control values; L shows 50% or less of control values)”.
In the case of `CCn1c(-c2c(F)cc(F)cc2F)c(-c2cc(F)ccc2F)ccc1=O` [Compound 424], the “Test H (control value class)” value was “H (key: H shows more than 50% of control values; L shows 50% or less of control values)”.
On to `CCn1c(-c2c(F)cc(F)cc2F)c(-c2cc(F)ccc2F)cc(Cl)c1=O` [Compound 425], for which the “Test H (control value class)” value is reported as “H (key: H shows more than 50% of control values; L shows 50% or less of control values)”.
With `Cn1c(-c2c(F)cc(F)cc2F)c(-c2cc(F)ccc2F)ccc1=O` [Compound 426] the entry was “H (key: H shows more than 50% of control values; L shows 50% or less of control values)”.
Turning to `Cn1c(-c2c(F)cc(F)cc2F)c(-c2cc(F)ccc2F)cc(Cl)c1=O` [Compound 427], the “Test H (control value class)” value is “H (key: H shows more than 50% of control values; L shows 50% or less of control values)”.
Take `O=c1ccc(-c2ccc(Cl)cc2F)c(-c2c(F)cccc2F)n1CC(F)F` [Compound 428]: the “Test H (control value class)” value is reported as “H (key: H shows more than 50% of control values; L shows 50% or less of control values)”.
`CCn1c(-c2c(F)cc(OC)cc2F)c(-c2ccccc2Cl)ccc1=O` [Compound 430]: the “Test H (control value class)” value is recorded as “H (key: H shows more than 50% of control values; L shows 50% or less of control values)”.
The entry for `Cn1c(-c2c(F)cc(F)cc2F)c(-c2ccccc2Cl)ccc1=O` [Compound 431] is “H (key: H shows more than 50% of control values; L shows 50% or less of control values)”.
Turning to `Cn1c(-c2c(F)cc(F)cc2F)c(-c2ccccc2Cl)cc(Cl)c1=O` [Compound 432], the “Test H (control value class)” value is “H (key: H shows more than 50% of control values; L shows 50% or less of control values)”.
The entry for `COc1cc(F)c(-c2c(-c3ccccc3Cl)ccc(=O)n2C)c(F)c1` [Compound 433] is “H (key: H shows more than 50% of control values; L shows 50% or less of control values)”; for `COc1cc(F)c(-c2c(-c3ccccc3Cl)cc(Cl)c(=O)n2C)c(F)c1` [Compound 435] it is “H (key: H shows more than 50% of control values; L shows 50% or less of control values)”; for `CN1C(=O)CCC(c2cc(F)cc(F)c2F)=C1c1c(F)cccc1F` [Compound 437] it is “H (key: H shows more than 50% of control values; L shows 50% or less of control values)”.
As to `CCn1c(-c2c(F)cccc2F)c(-c2cc(F)cc(F)c2F)ccc1=O` [Compound 438], the “Test H (control value class)” value is given as “H (key: H shows more than 50% of control values; L shows 50% or less of control values)”.
The entry for `Cn1c(-c2c(F)cccc2F)c(-c2cc(F)cc(F)c2F)ccc1=O` [Compound 439] is “H (key: H shows more than 50% of control values; L shows 50% or less of control values)”; for `CCn1c(-c2c(F)cccc2F)c(-c2cc(F)cc(F)c2F)cc(Cl)c1=O` [Compound 440] it is “H (key: H shows more than 50% of control values; L shows 50% or less of control values)”.
With `CCn1c(-c2c(F)cccc2F)c(-c2cc(F)cc(F)c2F)cc(Br)c1=O` [Compound 441] the entry was “H (key: H shows more than 50% of control values; L shows 50% or less of control values)”; with `Cn1c(-c2c(F)cccc2F)c(-c2cc(F)cc(F)c2F)cc(Cl)c1=O` [Compound 442], “H (key: H shows more than 50% of control values; L shows 50% or less of control values)”.
With `Cn1c(-c2c(F)cccc2F)c(-c2cc(F)cc(F)c2F)cc(Br)c1=O` [Compound 443] the entry was “H (key: H shows more than 50% of control values; L shows 50% or less of control values)”; with `CCn1c(-c2c(F)cccc2F)c(-c2cc(Cl)ccc2Cl)ccc1=O` [Compound 444], “H (key: H shows more than 50% of control values; L shows 50% or less of control values)”; with `Cn1c(-c2c(F)cccc2F)c(-c2cc(Cl)ccc2Cl)ccc1=O` [Compound 446], “H (key: H shows more than 50% of control values; L shows 50% or less of control values)”.
For the compound `Cn1c(-c2c(F)cccc2F)c(-c2cc(Cl)ccc2Cl)cc(Cl)c1=O` [Compound 447], the “Test H (control value class)” value is on record as “H (key: H shows more than 50% of control values; L shows 50% or less of control values)”.
The entry for `O=c1ccc(-c2cc(Cl)ccc2Cl)c(-c2c(F)cccc2F)n1CC(F)F` [Compound 448] is “H (key: H shows more than 50% of control values; L shows 50% or less of control values)”; for `O=c1c(Cl)cc(-c2cc(Cl)ccc2Cl)c(-c2c(F)cccc2F)n1CC(F)F` [Compound 449] it is “H (key: H shows more than 50% of control values; L shows 50% or less of control values)”.
As to `CCn1c(-c2c(F)cccc2F)c(-c2cc(Cl)cc(Cl)c2Cl)cc(Cl)c1=O` [Compound 451], the “Test H (control value class)” value is listed as “H (key: H shows more than 50% of control values; L shows 50% or less of control values)”.
Take `Cn1c(-c2c(F)cccc2F)c(-c2cc(Cl)cc(Cl)c2Cl)ccc1=O` [Compound 452]: the “Test H (control value class)” value is “H (key: H shows more than 50% of control values; L shows 50% or less of control values)”.
With `Cn1c(-c2c(F)cccc2F)c(-c2cc(Cl)cc(Cl)c2Cl)cc(Cl)c1=O` [Compound 453] the entry was “H (key: H shows more than 50% of control values; L shows 50% or less of control values)”.
For `O=c1ccc(-c2cc(Cl)cc(Cl)c2Cl)c(-c2c(F)cccc2F)n1CC(F)F` [Compound 454], the “Test H (control value class)” value was “H (key: H shows more than 50% of control values; L shows 50% or less of control values)”.
The entry for `O=c1c(Cl)cc(-c2cc(Cl)cc(Cl)c2Cl)c(-c2c(F)cccc2F)n1CC(F)F` [Compound 455] is “H (key: H shows more than 50% of control values; L shows 50% or less of control values)”; for `C#CCN1C(=O)CCC(c2cc(OC)ccc2Cl)=C1c1c(F)cccc1F` [Compound 456] it is “H (key: H shows more than 50% of control values; L shows 50% or less of control values)”; for `Cc1cc(-c2cc(F)cc(F)c2F)c(-c2c(F)cccc2F)n(C)c1=O` [Compound 457] it is “H (key: H shows more than 50% of control values; L shows 50% or less of control values)”.
Take `CCn1c(-c2c(F)cccc2F)c(-c2cc(F)cc(F)c2F)cc(C)c1=O` [Compound 459]: the “Test H (control value class)” value is listed as “H (key: H shows more than 50% of control values; L shows 50% or less of control values)”.
Take `COc1ccc(Cl)c(-c2ccc(=O)n(CC#N)c2-c2c(F)cccc2F)c1` [Compound 460]: the “Test H (control value class)” value is listed as “L (key: H shows more than 50% of control values; L shows 50% or less of control values)”.
Regarding `CCn1c(-c2c(F)cc(F)cc2F)c(-c2cc(F)ccc2Cl)cc(C)c1=O` [Compound 461, 5-(2-chloro-5-fluorophenyl)-1-ethyl-3-methyl-6-(2,4,6-trifluorophenyl)pyridine-2(1H)-one], the “Test H (control value class)” value is “H (key: H shows more than 50% of control values; L shows 50% or less of control values)”.
For `COc1ccc(Cl)c(-c2cc(Cl)c(=O)n(CC#N)c2-c2c(F)cccc2F)c1` [Compound 463], the “Test H (control value class)” value is given as “H (key: H shows more than 50% of control values; L shows 50% or less of control values)”.
The entry for `CCn1c(-c2c(F)cc(F)cc2F)c(-c2cc(F)cc(F)c2F)ccc1=O` [Compound 464] is “H (key: H shows more than 50% of control values; L shows 50% or less of control values)”; for `CCn1c(-c2c(F)cc(F)cc2F)c(-c2cc(F)cc(F)c2F)cc(Cl)c1=O` [Compound 465] it is “H (key: H shows more than 50% of control values; L shows 50% or less of control values)”.
The entry for `Cn1c(-c2c(F)cc(F)cc2F)c(-c2cc(F)cc(F)c2F)ccc1=O` [Compound 466] is “H (key: H shows more than 50% of control values; L shows 50% or less of control values)”; for `Cn1c(-c2c(F)cc(F)cc2F)c(-c2cc(F)cc(F)c2F)cc(Cl)c1=O` [Compound 467] it is “H (key: H shows more than 50% of control values; L shows 50% or less of control values)”; for `CCn1c(-c2c(F)cc(OC)cc2F)c(-c2cc(F)ccc2F)ccc1=O` [Compound 468] it is “H (key: H shows more than 50% of control values; L shows 50% or less of control values)”.
With `CCn1c(-c2c(F)cc(OC)cc2F)c(-c2cc(F)ccc2F)cc(Cl)c1=O` [Compound 469] the entry was “H (key: H shows more than 50% of control values; L shows 50% or less of control values)”.
With `CCn1c(-c2c(F)cccc2F)c(-c2cc(Cl)ccc2Cl)cc(C)c1=O` [Compound 470], the “Test H (control value class)” value is “H (key: H shows more than 50% of control values; L shows 50% or less of control values)”.
Regarding `Cc1cc(-c2cc(Cl)ccc2Cl)c(-c2c(F)cccc2F)n(C)c1=O` [Compound 471], the “Test H (control value class)” value is recorded as “H (key: H shows more than 50% of control values; L shows 50% or less of control values)”.
